73 sequences from article PMC10726135 can be followed below.

Some of the results follow. At the low end of the ranking, values are background and their order means little. Measured with an extract: partners may take part in the binding.

The target in this assay is T1, HNF4alpha8 (COS-7 nuclear extract) (UniProt P41235-5).
T1 sequence: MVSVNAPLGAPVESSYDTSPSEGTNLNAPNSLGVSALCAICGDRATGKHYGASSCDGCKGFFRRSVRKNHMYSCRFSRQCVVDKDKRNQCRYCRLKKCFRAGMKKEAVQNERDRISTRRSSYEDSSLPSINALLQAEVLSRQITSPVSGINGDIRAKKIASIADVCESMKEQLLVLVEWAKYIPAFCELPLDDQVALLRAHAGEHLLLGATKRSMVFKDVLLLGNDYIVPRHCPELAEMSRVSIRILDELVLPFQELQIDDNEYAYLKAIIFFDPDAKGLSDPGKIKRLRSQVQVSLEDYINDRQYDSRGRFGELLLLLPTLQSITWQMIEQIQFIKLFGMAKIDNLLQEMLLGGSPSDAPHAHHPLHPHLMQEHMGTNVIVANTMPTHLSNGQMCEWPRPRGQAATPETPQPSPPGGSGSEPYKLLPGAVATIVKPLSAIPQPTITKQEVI
Kind of assay: protein-binding microarray. The settings on record: COS-7 nuclear extract on double-stranded Agilent 4x180k PBM; binding buffer, salt, pH and temperature not given; high values mean tight binding; double strand, one strand shown; sequences stand for … in …GCCTAGGGAGATTAGAGTATCGGTCGA
For the sequence TATCGGTCACCATAAAACATTCTATTCTAT, the binding signal (log2 normalized intensity) was -1.31. Then AGGCAGCAGCTCCAATTAGGAGATCAGCCC, with -1.25; and CATAAACTCCAACTCAGCCCCCAGCATTAT, with 4.96; and CCCATCCGCAGTGGGAGAGCAAGGGTCAAG, with 4.51.

Turning to AACAACGGCGGCCCAGTCAAACCCCGCGCT, the binding signal (log2 normalized intensity) is -1.27.

On to ACAAAGGGCAAAGTCCCCTTTCCTCATATT, for which the binding signal (log2 normalized intensity) stood at 5.5. To AGTCTCCGAGGAACCCAGACTGCATTTTCA belongs -1.39; to GATAAAGCAGGTTGTACCTTGACCCAAGAA, 5.6. To GCTGTCACTGGCTGCTGCTCAGGAGACCGA belongs -1.2; to TCAGCTGCCACTGGAAGCTCTTCTGTGCCT, -1.33. To TTTTGAATGACAGTGTCAGGACCTTGCTCC belongs 2.73. For the sequence GCCGACTGCCAGGAGGGGACTTCAAAGGCT, the binding signal (log2 normalized intensity) is -1.21. Then GCTACAAAGATTGCATGAGATTTTGCTCAA, with -1.33; and GTATTGAGATAAGCAAGACTGCAGGGTCAT, with 2.04; and AATCTTGATAATGCCCTGACCCTAGATGAG, with 2.11. To AGGAGGAGCCAGTGAAGACTGAAAAGAGAT belongs -1.31; to AAGGGCAGCAGTAACCCCCCAGGAGCGAGT, 3.82; to ACAAAGCCCATGCTGGACCCTGGGCTTAGT, 3.18. To TGTCTCCCTCTGCAGCAAAGTCCAGGCATA belongs 1.76; to ATAACAGTGTAAGGACATTGCCCCCTATGT, 5.06. As for AAGCAGCAAACCAGATAAGACTATCTCATG, the binding signal (log2 normalized intensity) is -1.33. For the sequence TTTGTCACATTCCAGACTTTGTACAAGGGC, the binding signal (log2 normalized intensity) was 3.1.

For CTCCGACCCCACGGACTTAAATTGTGCTGT, the binding signal (log2 normalized intensity) was 0.721. To GAACATTAACTCTCTGTGAGTGTGTTGGCA belongs 0.99. Then TTGCCCAGCTGTTCCGTGTTCCAGAGCCTC, with -0.808; and ACCTAGGGGACATTCTTTAGAGGCTGGGTG, with 0.525; and AGAGTTGAACCCTTGGGGCTTTTGCAATTT, with 2.16. To GGTGTTCCTGAGTAAATCTCACATTCGTTA belongs 0.57; to AACTAAGAACACAGTCATTTATTCACTTAT, -0.544; to GTTTTCAAACAATGAGAGGCAACATTCCCA, -1.3. As for TGGGGACAGGGATTAAGTACCGCTCCTCTC, the binding signal (log2 normalized intensity) is -1.31. Take GGAGCTGTGGGCCTCACACCCTCTAGGGTA: the binding signal (log2 normalized intensity) was -1.43. For TTTTAAATACCTTTTTGGGACTGATAACTT, the binding signal (log2 normalized intensity) was 1.23. For the sequence CACCTTTGAAATCTCAAATAGCTGGGTCTC, the binding signal (log2 normalized intensity) worked out at 0.777. Then ATTACTTCTCAACTGATATGGCTCTGTTTT, with 0.533; and GAGCTTCTGTCTTGGACTGCGAAAGATAAA, with 1.08. Turning to CTCTGAGATTCGGTGAGGGATTGTTTAGGT, the binding signal (log2 normalized intensity) was 0.829. Consider CTCTTGTAATTTAAGTGGTTCACAAACATT, for which the binding signal (log2 normalized intensity) was 0.823. Take CAAGGCAGCTCAGCTAGTGAGATACGGCCT: the binding signal (log2 normalized intensity) is -1.26. Then TTTTTTCAAGTGTTAGCTGTTTCCAAATAT, with 0.664; and TCTGTTTGAGGTTCACTGGGGAGACTCTCT, with 0.00246; and GAAATACAGTAGACTTTTTTTTTCTTAATT, with -0.353. Then GCCCAGCAGAGCAGTTTAGAGAAAGGGTCA, with 2.77; and TGACACAGCCACAAAAACCAAAGGTCACTT, with 5.08; and CTGGTGGAGGGGACCTTTTCCTCGGGTGTC, with 1.34.

Consider CTAGTTCATTAAACATGTTTACTCTGGTCC, for which the binding signal (log2 normalized intensity) was determined as 1.59. To TTTGCAAGTGGAGATTTCAGCCGCTTTGAG belongs -1.45; to ATGCAAACAGCAGCCACATTCCATGAGCTG, -1.21. To TTTTTAGATAGTGACTTGAAAGGGACTTAG belongs 0.258; to ACCCAGAACCCCCAGGTCACCCACAACCTA, 3.97; to TTTTAAAATAGATAAGTCCCTAAGAGGAAT, -1.3. For the sequence AAAGCCAGCTGTCTATCCTTATTTATCTTC, the binding signal (log2 normalized intensity) was -1.31. To ATTAACCAAAGCTACACAGATAAGCCATTC belongs -1.31; to GGAATGGCAGTGCTTGTCCAAGATGGCAAT, -0.946; to CTGCACTGACACTGTCCCAGCTGAGATTCA, -1.41. To ATCAGCAGCCCAGCATACCATTCCCACCCC belongs 4.27. In the case of TCAATGACTACCTGTTACCCACCTGATATT, the binding signal (log2 normalized intensity) is 1.23.

As for CCGATCCTTACTATTAGGTCTTTGAAGTTG, the binding signal (log2 normalized intensity) is 1.77. To TCACCTGGAGAAGCAGAAGCTGCACACATG belongs -1.3. To GGGTCATTTTATGGGAAAACAGAATGGTCT belongs 1.88; to CAGCAGGAGACCTGAAACTAGACCAAGAAG, -1.38; to GGATTGTTACATCATAGTGTTTGCCTTATT, 1.93. Take CTCATTTATTATTTGTCTGGGTTATCAGTC: the binding signal (log2 normalized intensity) worked out at 1.66. To TCGGGGCATGCACTGTTTGCCATAGATCCC belongs -0.985.

In the case of CTTAGCAGAAGCCCTCCTGGACATTGTGTG, the binding signal (log2 normalized intensity) was 2.13. Then CCTTTGATCTCCGTGTTTGGAATTGTGTCA, with 2.53; and CGGGTGTTTCTGGGAGTTGTGGTCCGCAGG, with 1.29. With TCAAGTGTGCACACTTAGAAAATGCCCTCA, the binding signal (log2 normalized intensity) amounted to 3.29. Then TCTGCTGTTTGTTTCACTAATGTAGATTTT, with 1.38; and TTCAGAGGCCAGCAGTGCTTTTCCCAGGAA, with -1.34; and CTTTTCCTTTTTGCATGAGAATCTGACCTT, with 4.72. Then ATAGACTTAAGTCTGAATTCTAGTCCTATC, with -1.38; and TTCTGTTCAATGGTGCTTTTGATATTGTTG, with 1.79.
